PubChem BioAssay AID651820 (National Center for Advancing Translational Sciences (NCATS), 2012)
Out of some 340,000 compounds screened, about 12,000 (3.5%) were called active. The shares of active, inactive and inconclusive entries below differ from those in the screen. Calls come from the whole dose curve; as a rule, active = well fitted inhibition curve with a large enough effect; inconclusive = small, poorly fitted or top-dose-only effect, or another doubt; inactive = no such curve, though single readings can be large or run the other way. No potency is given beside an inconclusive call; the fits are too rough.

Assay: qHTS Assay for Inhibitors of Hepatitis C Virus (HCV)
Conditions: Huh7.5.1 HCVcc-Cre (HCVcc is cell-culture hepatitis C virus) infection, luciferase reporter, 44 h; activity change, negative = inhibition: at 41.8 µM (top of the series)
Outline: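 Seed cells (1,000/well) for 4 h; treat with compound and infect with HCVcc-Cre, moi about 0.5. Incubate 44 h, then detect luciferase activity.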
% is set by controls: 0 for no effect and ±100 for the full control effect; potency is the fitted concentration of half-maximal effect; tags give direction and shape of the fitted curve.

SMILES | Potency | activity change, negative = inhibition
CCCCCCn1c(SCC(C)C)nc2c1c(=O)[nH]c(=O)n2C | inconclusive [inhibitor, single point] | 
CN(C1CCCCC1)S(=O)(=O)c1ccc(NC(=O)C2CCCCC2)cc1 | active: 14.1 µM | 
COc1ccc(C)cc1NC(=O)NNC(=O)C(C)Oc1ccc(F)cc1Cl (stereo not drawn) | inconclusive [inhibitor, partial curve] | 
Cc1ccc(-c2nc(Nc3cccc(O)c3)c3ccccc3n2)cc1 | active: 28.2 µM | 
CN(C)C=NC(=O)c1cc(C(=O)c2ccc(Cl)cc2)c[nH]1 | inconclusive [inhibitor, single point] | 
CCCC(=O)Nc1cnc(NC(=O)c2cccc(F)c2)cc1C | inactive | 
O=C(CN1CCN(C(=O)CNC(=O)c2ccc(N3CCCC3=O)cc2)CC1)Nc1ccccc1Cl | inactive | 
COc1ccc(/C=C2/SC(=O)N(CC(O)Cn3c4ccccc4c4ccccc43)C2=O)cc1 (stereo not drawn) | inactive | 
CCC(=O)N1CCN(c2ccc(NC(=O)c3ccc(N4CCCC4)c([N+](=O)[O-])c3)cc2)CC1 | inconclusive [inhibitor, single point] | 
Cc1ccc2cccc(S(=O)(=O)Nc3ccc4c(c3)OCO4)c2n1 | inconclusive [inhibitor, full curve] | 
CCC(OCC(O)CN1CCN(CCN2C(=O)c3cccc4cccc(c34)C2=O)CC1)c1ccccc1 (stereo not drawn) | active: 7.94 µM | 
Cc1ccc2c(c1)c1c(n2CC(O)Cn2nc(C)c(Br)c2C)CCCC1 (stereo not drawn) | inconclusive [inhibitor, partial curve, poor fit] | 
O=C(Cc1cccs1)Nc1ccc(F)c(S(=O)(=O)N2CCOCC2)c1 | inconclusive [inhibitor, single point] | 
CCC1C/C(=C\c2cc(OC)c(OC)cc2OC)C(=O)/C(=C/c2cc(OC)c(OC)cc2OC)C1 (stereo not drawn) | active: 7.08 µM | 
COc1ccc(CN(C(=O)CSc2nnc(-c3c[nH]c4ccccc34)o2)c2ccc(F)cc2)cc1OC | active: 5.01 µM | 
COc1ccc(OC)c(CCNC(=O)C(=O)Nc2ccc3nc4n(c(=O)c3c2)CCCCC4)c1 | inconclusive [inhibitor, partial curve] | 
COc1ccc(NC(=S)NC(NC(=O)c2ccccc2Cl)C(Cl)(Cl)Cl)c([N+](=O)[O-])c1 (stereo not drawn) | inconclusive [inhibitor, partial curve, poor fit] | 
C=CC[C@H](CC(=O)OC(C)(C)C)C(=O)OC[C@H]1CCCN1C(=O)[C@@H](CC=C)CC(=O)N(CCO)Cc1ccccc1 | inconclusive [inhibitor, single point] | 
Cn1c(SCC(=O)N/N=C/c2ccc([N+](=O)[O-])s2)nnc1-c1ccccc1 | active: 11.2 µM | 
O=C(NCc1ccccc1)C1CCCN(C(=O)c2ccc(F)cc2)C1 (stereo not drawn) | inactive | 
COc1ccc(NC(=O)N2CCN(c3cccc(C(F)(F)F)c3)CC2)cc1 | inconclusive [inhibitor, single point] | 
CCC(NC(=O)c1[nH]c(C)c(C(C)=O)c1C)c1ccc(Br)cc1 (stereo not drawn) | inconclusive [inhibitor, single point] | 

SMILES | Potency | activity change, negative = inhibition
COCCN(C(=O)COC(=O)c1ccccc1Nc1ccccc1)c1c(N)n(Cc2ccccc2)c(=O)[nH]c1=O | inconclusive [inhibitor, partial curve] | 
CCN1C(=O)[C@H]2[C@@H](c3ccc(-c4ccc(Cl)c(Cl)c4)cc3)N[C@@](Cc3ccccc3)(C(=O)OC)[C@H]2C1=O | inconclusive [inhibitor, single point] | 
Cn1nccc1C(=O)N/N=C/c1ccccc1[N+](=O)[O-] | inactive | 
Cc1[nH]c2ccc(F)cc2c(=O)c1SC(F)(F)C(F)C(F)(F)F (stereo not drawn) | inconclusive [inhibitor, single point] | 
CN(C(=O)c1cccc(NC(=O)Cc2ccc(NC(=O)C3CCN(C(=O)c4ccccc4)CC3)cc2)c1)C1CCCCC1 |  | inactive: 42.4% [at 8.37 µM]
COc1cc(CC(=O)OCC(=O)c2ccc(F)cc2)cc(OC)c1OC | inactive | 
COc1cccc(-c2nc(CS(=O)(=O)CC(=O)Nc3cc(F)ccc3F)c(C)o2)c1 | inconclusive [inhibitor, partial curve] | 
Cc1ccc(NC(=O)CSc2nc3ccccc3c3nc(CCn4cncc4C)nn23)c(C)c1 | inconclusive [inhibitor, single point] | 
CCSc1c(C(=O)NC)ccc2c1C(=O)c1ccccc1C2=O | inactive | 
O=C(NCc1ccc(F)cc1)Nc1ccc(Cl)cc1 | inactive | 
Cc1ccc(C(=O)c2c3ccc([N+](=O)[O-])cc3[n+]([O-])n2CCCN)cc1 | active: 7.94 µM | 
COc1ccc(Br)c(C(=O)OCc2cc(=O)oc3cc(C)ccc23)c1 | inconclusive [inhibitor, single point] | 
NC(=O)c1ccc(-n2nnnc2SCC(=O)Nc2ccc(N3CCOCC3)c(Cl)c2)cc1 | inconclusive [inhibitor, single point] | 
Cc1ccc(-n2ncc(C(=O)N3CCN(C(=O)c4ccco4)CC3)c2C2CCN(C(=O)OC(C)(C)C)CC2)cc1C | inactive | 
CN(C(=O)COC(=O)CNC(=O)c1ccc(C(C)(C)C)cc1)c1c(N)n(Cc2ccccc2)c(=O)[nH]c1=O | inactive | 
O=C(CNC(=O)c1cccs1)Nc1ccc(N2CCOCC2)cc1 | inactive | 
Cc1nc2ccccc2c(=O)n1/N=C/c1ccc2ccccc2c1O | inactive | 
c1ccc(Cn2nnc3c(NCC4CCCO4)nc(C4CC4)nc32)cc1 (stereo not drawn) | inconclusive [inhibitor, partial curve] | 
Cc1ccc(-c2cc(C(F)(F)F)nc(SCC(=O)c3cccc([N+](=O)[O-])c3)n2)cc1 | inconclusive [inhibitor, full curve] | 
COc1cc(C)c(CN2CCC(Cc3ccccc3)CC2)cc1C | active: 12.6 µM | 
C[C@H](CO)N1C[C@H](C)[C@@H](CN(C)S(=O)(=O)c2ccccc2)Oc2ccc(NS(=O)(=O)c3ccccc3)cc2C1=O | inconclusive [inhibitor, single point] | 
